Laboratory results reported in PMC6919601, “Identification of Plasmodium dipeptidyl aminopeptidase allosteric inhibitors by high throughput screening” (PLoS ONE, 2019).
About 230 (0.21%) of roughly 110,000 compounds showed an effect of 50% or more. The list shows a part of the results.

target: DPAP1 (Plasmodium falciparum, UniProt Q8IIJ9); test: primary screen, percent inhibition; read by cleavage of a fluorogenic dipeptide substrate; higher = more effect of the substance; set-up: species or system P. falciparum D10 trophozoite lysates; single well
Sequence (Q8IIJ9 whole entry, looked up): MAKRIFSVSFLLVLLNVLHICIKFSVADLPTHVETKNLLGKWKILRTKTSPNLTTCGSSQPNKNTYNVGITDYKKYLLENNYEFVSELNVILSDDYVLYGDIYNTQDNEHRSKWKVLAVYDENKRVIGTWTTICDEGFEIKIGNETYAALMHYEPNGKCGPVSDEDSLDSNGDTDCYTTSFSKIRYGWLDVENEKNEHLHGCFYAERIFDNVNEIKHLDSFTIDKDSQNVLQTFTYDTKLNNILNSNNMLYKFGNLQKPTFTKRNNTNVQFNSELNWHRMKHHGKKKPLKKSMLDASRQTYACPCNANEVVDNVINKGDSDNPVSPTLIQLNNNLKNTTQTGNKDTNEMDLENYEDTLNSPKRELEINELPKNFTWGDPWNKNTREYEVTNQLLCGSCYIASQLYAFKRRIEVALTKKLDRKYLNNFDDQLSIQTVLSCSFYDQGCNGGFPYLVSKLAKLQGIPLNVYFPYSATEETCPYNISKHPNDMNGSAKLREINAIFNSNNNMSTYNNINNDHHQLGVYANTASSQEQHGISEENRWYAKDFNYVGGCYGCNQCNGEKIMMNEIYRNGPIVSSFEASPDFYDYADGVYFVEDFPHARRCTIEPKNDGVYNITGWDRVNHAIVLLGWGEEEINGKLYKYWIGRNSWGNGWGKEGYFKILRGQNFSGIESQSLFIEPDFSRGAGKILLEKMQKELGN
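Also: 30 min substrate incubation versus DMSO and 10 µM JCP410 controls.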

Row | SMILES | % Inhibition @ 10 uM [%]
1 | O=c1cc(CSc2nc3cccnc3[nH]2)nc2ccccn12 | 4.67
2 | N#CCc1ccc(-n2cnnn2)cc1 | -0.834
3 | Cc1ccc(Cc2c(C)nc3nc(SCC(=O)NCCN4CCOCC4)nn3c2C)cc1 | -3.48
4 | COC(=O)c1cc2sc(Cl)cc2n1CC(=O)NCC1CCCO1 (stereo not shown) | -4.01
5 | C1CCC(Nc2nnnn2C2CCCCC2)CC1 | -0.239
6 | Cn1c(=O)c2c(nc3n2CCCN3C2CCCCCCC2)n(C)c1=O | 9.96
7 | Cn1c(C(=O)O)c(CNCCN2CCOCC2)c2ccccc21 | 5.09
8 | O=C(N/C(C(=O)N1CCOCC1)=C(\Sc1ncccn1)c1ccccc1)c1ccccc1 | -8.35
9 | OCC1CCCN1Cc1cccc(F)c1 (stereo not shown) | -5.94
10 | O=C(NCCO)C(=O)NC1CCCCC1 | -1.75
11 | COc1cccc(OCCNC(=O)c2cccc3ccccc23)c1 | -9.11
12 | CCCCN1CCCC1C(=O)NCc1ccc(OC)c(OC)c1 (stereo not shown) | 7.24
13 | Cc1cc(=O)n(C)c2c1C(=O)CC(C)(C)C2 | 0.35
14 | Cc1ccc2oc(=O)c3cnn(CC(=O)N4CC(C)CC(C)C4)c3c2c1 (stereo not shown) | -0.0115
15 | CN(C)c1nc(N2CCOCC2)nc(N(c2ccccc2)c2ccccc2)n1 | 0.968
16 | CCN(CC)CCCNC(=O)c1ccc(CSc2nc3cccnc3n2Cc2ccccc2)cc1 | 2.72
17 | CCC(C(=O)NC1CCCC1)n1c(SCc2ccccc2F)nc2ccncc21 (stereo not shown) | 2.65
18 | Cc1ccc2c(c1)cc1c(=O)n(CC(=O)N3CCC4(CC3)OCCO4)nc(C)n12 | -1.7
19 | Cc1cc(Cl)cc(Cl)c1OCC(=O)NCc1ccco1 | 3.04
20 | CCOc1ccc(CC(=O)NCc2cn3c(C)csc3n2)cc1 | 2.57
21 | COC(=O)c1c(NC(=O)c2oc(=O)c3ccccc3c2-c2ccccc2)sc(C)c1C | 3.76
22 | CN(C)CCCN(C(=O)CN1C(=O)c2ccccc2C1=O)c1nc2ccc(F)cc2s1 | 6.31
23 | CCN(CC)CCSc1nc2cc(OC)ccc2[nH]1 | 4.57
24 | COC(=O)C1=C(NC(=O)c2ccc(C(C)(C)C)cc2)CCS1 | -1.84
25 | CC(C)OCCCN(Cc1ccccc1F)C(=O)Nc1ccccc1 | 1.19

Row | SMILES | % Inhibition @ 10 uM [%]
26 | Cc1ccc(S(=O)(=O)NNC(=S)Nc2ccccc2)cc1 | -0.744
27 | CC[C@H](NC(=O)[C@H](Cc1c(F)cccc1F)NC(=O)c1ccc(-c2cc(C(=O)O)ccc2Cl)cc1)C(=O)c1nc2ccccc2o1 | -6.56
28 | Cc1ccc(/C=C(\NC(=O)c2ccccc2)C(=O)NC2CCCCC2)o1 | -0.725
29 | Cc1c(NC(=O)NCCCN2CCOCC2)sc2nc3n(c(=O)c12)CCC(C)CC3 (stereo not shown) | 6.35
30 | COc1ccc(NC(=O)c2cc(F)c(F)cc2Cl)cn1 | -2.5
31 | N#C/C(=C/c1ccc(N2CCOCC2)o1)C(=O)Nc1ccc(Cl)cc1 | 2.65
32 | Nc1nonc1-n1nnc(C(=O)O)c1-c1ccc2c(c1)OCO2 | 1.62
33 | COc1ccc(NC(=O)c2cnccn2)cc1 | 0.177
34 | Cc1ccc(S(=O)(=O)Nc2ccccc2C(=O)NC(C)c2ccccc2)cc1 (stereo not shown) | -1.99
35 | CCCNS(=O)(=O)c1c(C)[nH]c(C)c1C(=O)OCC | -4.21
36 | CCCCOC(=O)C1CCCC(C)N1 (stereo not shown) | 4.08
37 | Cc1ccc(S(=O)(=O)/N=C(/NC2CCCCC2)c2ccccc2)cc1 | -3.96
38 | COc1ccc(NC(=O)c2sc3nc4c(cc3c2N)CC(C)CC4)c(OC)c1 (stereo not shown) | 2.82
39 | Cc1cccc(C)c1NC(=O)/C=C/C(=O)O | -2.55
40 | CC1(C)Cc2c(c(N3CCOCC3)nc3sc4c(=O)n(Cc5ccco5)cnc4c23)CO1 | 1.72
41 | CCCn1c2ccccc2c2cnn(CC(=O)N(C)CCCN(CC)CC)c(=O)c21 | 1.43
42 | COc1ccc2oc(C)c(C(=O)c3ccc(Br)cc3)c2c1 | -0.482
43 | C=Cc1ccc(Cn2c(C)c(CNCc3ccc(OCC)cc3)c(C(=O)O)c2C)cc1 | -1.92
44 | COc1ccc2nc3sc(C(=O)N4CCN(C)CC4)cc3cc2c1 | -5.06
45 | Cc1cccc(N2C(=O)C(Cl)=C(Nc3ccccc3)C2=O)c1 | 3.92
46 | O/N=C1\CC(c2ccccc2)OC12CCCCC2 (stereo not shown) | -5.62
47 | C=Cc1ccc(Cn2c(C(=O)O)c(CNCc3ccccc3)c3ccccc32)cc1 | 4.9
48 | COc1cc(C2C(C#N)=C(N)N(c3nc[nH]n3)C3=C2C(=O)CC(C)(C)C3)ccc1OCc1ccccc1 (stereo not shown) | -6.18
49 | COc1ccc(S(=O)(=O)c2c(C(=O)c3ccccc3)cnc3cc4c(cc23)OCCO4)cc1 | -7.13
50 | Cc1ccc(CNC(=O)c2ccc3c(O)nc4c(-c5ccccc5)nnn4c3c2)cc1 | 1.68

Row | SMILES | % Inhibition @ 10 uM [%]
51 | CC(c1ccccc1)N1C(=O)NC(NC(=O)c2cccnc2)(C(F)(F)F)C1=O (stereo not shown) | 7.84
52 | CC(=O)NC(=O)c1ccc(-c2ccc(Cl)cc2)o1 | -7.27
53 | CCC(=O)N1c2ccccc2N=C2CC(C)(C)CC(O)=C2C1c1cccn1C (stereo not shown) | -3.26
54 | CCOc1ccc(CNC(=O)C2CCCN(S(=O)(=O)N(C)C3CCCCC3)C2)cc1 (stereo not shown) | 3.35
55 | Cc1sc(NC(=O)Nc2ccc(Cl)cc2)c(C(N)=O)c1C | -0.891
56 | CCOc1c(Cl)cc(C2C3=C(CCCC3=O)N(CC(=O)O)C3=C2C(=O)CCC3)cc1OC | -17.9
57 | CC(C)c1ccc(/C=C/C(=O)N2CCCC2)cc1 | 17
58 | O=C(c1ccc2nc(-c3ccccc3)c(-c3ccccc3)nc2c1)N1CCC2(CC1)OCCO2 | 5.17
59 | CCOC(=O)c1c(C)nc2ccc(Cl)cc2c1-c1ccccc1 | 7.5
60 | Cc1ccc(-c2cc(C(=O)Nc3ccc(S(=O)(=O)Nc4ncccn4)cc3)c3ccccc3n2)o1 | 5.63
61 | CCOc1ccccc1N1CCN(C(=O)c2ccccc2)CC1 | 5.73
62 | COC(=O)C1=C(C)NC(=O)CC1c1c(F)cccc1Cl (stereo not shown) | 3.05
63 | CN(C)c1ccc(/C=C(\C#N)c2nc(-c3ccc(Cl)cc3)cs2)cc1 | -2
64 | CCCOc1ccc(/C=c2\sc3nc(-c4ccccc4OC)nn3c2=O)cc1 | 3.87
65 | O=C1CCCc2nc(-c3ccccc3)cc(-c3ccccc3)c21 | -0.233
66 | CCOC(=O)c1cc(CC)sc1NC(=O)c1ccc2c(c1)OCO2 | -8.17
67 | Brc1ccccc1OCCCCCN1CCCC1 | 5.95
68 | O=C(NCc1ccccc1)C(=O)NC1CCCC1 | -9.18
69 | CCc1nc2cccnc2n1-c1ccc(CC(=O)NCc2ccc(F)cc2)cc1 | -1.68
70 | CCc1ccc2ncc(S(=O)(=O)c3ccc(C)cc3)c(O)c2c1 | 1.42
71 | C=CCc1cc(/C=C2/C(=N)N3C(=NC2=O)SN=C3S(C)(=O)=O)cc(OC)c1O | 3.48
72 | CC1CCCN(C2CC(=O)N(c3ccc(Br)cc3)C2=O)C1 (stereo not shown) | 4.12
73 | CC(C)c1ccc(/C=C2/C(=N)N3C(c4ccccc4)=CSC3=NC2=O)cc1 | -3.75
74 | Cc1cc(C)n(-c2nc(-c3ccccc3)cc(-c3ccccc3O)n2)n1 | 0.827
75 | CN(CCCNC(=O)c1ccc(CS(=O)c2ccc(Br)cc2)o1)Cc1ccccc1 (stereo not shown) | -1.57

Row | SMILES | % Inhibition @ 10 uM [%]
76 | COc1ccc(Cl)cc1S(=O)(=O)NCc1nc2nc(C)cc(C)n2n1 | -2.17
77 | O=C(O)CCCNC(=O)c1ccncc1 | 3.32
78 | O=C(O)c1cc(-c2ccc3c(c2)OCO3)nc2cc3c(cc12)OCCO3 | 0.559
79 | O=C(NCC1CCCO1)c1cc(S(=O)(=O)N2CCCCC2)c[nH]1 (stereo not shown) | 1.17
80 | Cc1sc2ncn(CC(=O)NCC(=O)N(C)C3CCCCC3)c(=O)c2c1C | -2.17
81 | COc1ccccc1-c1c(C)nn2c(SCC(=O)N(C)Cc3ccccc3)cc(C)nc12 | -5.32
82 | CC(C)C[C@H](NC(=O)OCc1ccccc1)C(=O)NC(C#N)CNC(=O)OC(C)(C)C (stereo partly shown) | -1.41
83 | C#CC(C)(C)NC(=O)CCCCCN1C(=O)c2ccccc2C1=O | -1.98
84 | c1coc(C2NCCc3ccccc32)c1 (stereo not shown) | 2.16
85 | CN1C(=O)C(=CNc2ccccc2-c2ccccc2)C(=O)N(C)C1=O | -4.67
86 | COC(=O)C1=C(C)N(Cc2ccco2)C(=O)/C1=C\c1cc(C)n(-c2cc(C)ccc2OC)c1C | 1.63
87 | CC(C)c1ccc(N2C(=O)CSC23C(=O)Nc2ccccc23)cc1 (stereo not shown) | -1.06
88 | CC1CCN(c2nnc(-n3cccc3CN3CCN(c4ccccn4)CC3)s2)CC1 | 2.09
89 | COc1ccc(C2NC(=O)c3[nH]nc(-c4cccs4)c32)cc1 (stereo not shown) | 0.208
90 | CC(NC(=O)c1cccs1)c1cc2c(cc1Cl)OCCCO2 (stereo not shown) | -1.28
91 | O=S(=O)(NCC(c1ccccc1)N1CCC(O)CC1)c1ccc(Cl)cc1 (stereo not shown) | -0.671
92 | O=C(Nc1ccc2c(c1)OCO2)C1c2ccccc2Oc2ccccc21 | -0.413
93 | O=C(Nc1ccc2oc(-c3ccc(F)cc3)nc2c1)c1ccc(F)cc1 | -5.92
94 | O=[N+]([O-])c1ccc(-c2cn3ccsc3n2)cc1 | -5.5
95 | CCOc1ccccc1CNC(=O)CN(C)c1nn2c(=O)cc(C)nc2s1 | 4.55
96 | O=C1NC(=S)N(c2cccc(Cl)c2)C(=O)/C1=C/c1cccs1 | 3.32
97 | C=CCn1c(SCC(=O)N2CCCCCC2)nc2sc3c(c2c1=O)CCC3 | 1.35
98 | O=C(Cc1c(O)nc2ccccc2c1O)Nc1ccc(F)cc1 | -4.98
99 | NC1=NC(=O)/C(=C\c2cccc(C(F)(F)F)c2)S1 | 1.13
100 | CCCOc1ccc(C2C3(C#N)C(N)=NC4(OCCO4)C23C#N)cc1 (stereo not shown) | 0.413
